These are literature values, as cited in paper PMC8869507, “Gel-Forming of Self-Assembling Peptides Functionalized with Food Bioactive Motifs Modulate DPP-IV and ACE Inhibitory Activity in Human Intestinal Caco-2 Cells” (Biomedicines, 2022).

The subject of this series is Caco-2 cells. The note with it: apical side of Caco-2 cells, trans-epithelial transport; ref [29]; cited from earlier work. The source says: This difference was explained ...
A general note: Passage across Caco-2 layers is used to estimate intestinal permeability.

For IAVPTGVA [Soy1], the “break-down fragments by intestinal peptidases” value was “partially degraded in three small peptides AVPTGVA, IAVPT, and IAVP”.
